Laboratory results taken from paper PMC4336329 (PLoS ONE, 2015).
Out of some 310,000 compounds screened, about 2,200 (0.71%) showed an effect of 50% or more. The effect is printed as a negative number. The list shows a part of the results.

biological target: human ether-à-go-go-related gene (hERG) potassium channel (human, UniProt Q12809); experiment: primary screen, population patch clamp on CHO cells stably expressing hERG
Sequence (Q12809 whole entry, looked up): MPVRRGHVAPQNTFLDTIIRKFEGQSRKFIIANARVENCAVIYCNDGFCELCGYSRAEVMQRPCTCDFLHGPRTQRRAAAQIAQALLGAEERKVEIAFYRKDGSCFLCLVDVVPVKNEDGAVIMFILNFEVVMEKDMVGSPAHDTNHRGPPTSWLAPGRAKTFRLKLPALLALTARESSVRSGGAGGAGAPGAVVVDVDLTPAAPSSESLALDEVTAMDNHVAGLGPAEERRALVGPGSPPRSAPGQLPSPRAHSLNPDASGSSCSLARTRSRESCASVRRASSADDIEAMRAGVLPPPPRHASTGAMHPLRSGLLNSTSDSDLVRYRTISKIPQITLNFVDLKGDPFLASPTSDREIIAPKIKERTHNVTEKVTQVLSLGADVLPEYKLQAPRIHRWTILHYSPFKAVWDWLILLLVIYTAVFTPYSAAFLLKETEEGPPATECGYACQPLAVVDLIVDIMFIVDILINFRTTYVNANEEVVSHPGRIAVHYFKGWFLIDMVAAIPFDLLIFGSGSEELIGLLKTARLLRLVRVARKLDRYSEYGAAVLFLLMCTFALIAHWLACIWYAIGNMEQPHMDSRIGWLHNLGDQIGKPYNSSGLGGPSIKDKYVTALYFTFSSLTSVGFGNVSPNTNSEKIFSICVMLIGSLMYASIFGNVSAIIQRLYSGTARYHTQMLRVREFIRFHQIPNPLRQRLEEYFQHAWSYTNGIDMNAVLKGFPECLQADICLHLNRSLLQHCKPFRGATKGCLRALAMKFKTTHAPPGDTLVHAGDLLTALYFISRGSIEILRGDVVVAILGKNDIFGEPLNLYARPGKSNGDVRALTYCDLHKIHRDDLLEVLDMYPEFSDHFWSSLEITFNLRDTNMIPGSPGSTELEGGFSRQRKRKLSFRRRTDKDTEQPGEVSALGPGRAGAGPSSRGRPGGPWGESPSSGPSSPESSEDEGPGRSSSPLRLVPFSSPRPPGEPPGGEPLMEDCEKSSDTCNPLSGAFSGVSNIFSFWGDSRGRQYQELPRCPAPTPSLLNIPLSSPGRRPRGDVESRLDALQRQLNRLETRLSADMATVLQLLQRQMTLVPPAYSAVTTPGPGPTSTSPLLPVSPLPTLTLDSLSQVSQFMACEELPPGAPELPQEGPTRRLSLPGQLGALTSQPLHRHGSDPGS

Point of comparison: `N#CCSc1nnc(Cc2cccc3ccccc23)n1C1CCCCC1`, “hERG current change (%, negative = inhibition) at 1uM” value 9.65%. Against it:
- Nc1ccc(N2CCN(C(=O)c3ccco3)CC2)cc1 — higher, 14.5%
- NC(N)=NN=C1CCC(c2ccccc2)CC1 (stereo not shown) — higher, 19.2%
- c1coc(CNc2ncnc3[nH]ncc23)c1 — higher, 18.2%
- Cc1ccc(Oc2ncccc2/C=N/O)cc1 — lower, 6%
- CC(=O)Nc1ccc(S(=O)(=O)Oc2ccccc2N2CCCCC2)cc1 — lower, 5.56%
- CN(CCNC(=O)c1ccc(CS(=O)(=O)c2ccc(Br)cc2)o1)CCc1ccccc1 — lower, -42%
- Cc1ccnc(NS(=O)(=O)c2ccccc2)c1 — higher, 14.6%
- COc1cc(NC(=O)C2CSC3(C)CCC(=O)N23)c(OC)cc1Cl (stereo not shown) — higher, 12.1%
- Cc1ccc(S(=O)(=O)CC(=O)Nc2ncc([N+](=O)[O-])s2)cc1 — higher, 22%
- NC(=O)CC(NC(=O)Cc1cccc2ccccc12)c1ccc(NC2CCCCCC2)c([N+](=O)[O-])c1 (stereo not shown) — lower, 5.16%
- CCOC(=O)c1ccc(NS(=O)(=O)c2c(N)[nH]c(=O)[nH]c2=O)cc1 — lower, 6.79%
- CCCCC(=O)Nc1ccc(C(=O)NNC(=S)NC(=O)c2ccco2)cc1 — higher, 13.6%
- Cc1ccc(NC(=O)/C=C/c2ccco2)nc1 — higher, 15.4%
- CCOc1ccc2c(=O)c(Oc3ccccc3OCC)coc2c1 — lower, -0.023%
- CC(=O)Nc1ccc(NC(=O)CNC(=O)c2sc3ccccc3c2Cl)cc1 — lower, 3.18%
- COC(Cc1ccccc1N1CCCC1=O)OC — higher, 11.4%
- CC(=O)Nc1ccc(C(=O)NCC(c2ccco2)N(C)C)cc1 (stereo not shown) — higher, 12.5%
- COC(=O)C1=CN(C)C=C(C(=O)OC)C1c1ccccc1Cl — higher, 14%
- Cc1n[nH]c(=O)c2c(NC(=O)CSc3ccccc3F)oc(C)c12 — higher, 15.6%
- O=C(Nc1cc(Cl)ccc1-n1cncn1)c1ccc(F)c(S(=O)(=O)N2CCOCC2)c1 — lower, -15.3%
- CCc1ccccc1NC(=O)CSc1nnc(-c2ccco2)n1N — higher, 11.3%
- CCOC(=O)c1cc(-c2nnc(-c3ccc(Oc4ccccc4)cc3)o2)c(C)nc1C — higher, 17.8%
- CC1(C)C(c2ccccc2)=NC(c2ccccc2)N1O (stereo not shown) — lower, -10.3%
- COc1cccc(N=C2NC(=O)/C(=C/c3cc([N+](=O)[O-])ccc3O)S2)c1 — lower, 5.39%
- OCCC1CN(Cc2cccn2-c2cccnc2)CCN1CCc1ccccc1 (stereo not shown) — lower, -37.5%
- CC(c1nnc(SCC(=O)Nc2cc([N+](=O)[O-])ccc2F)n1Cc1ccccc1)N(C)C (stereo not shown) — lower, -12.3%
- CCC1(C)Cc2ccccc2-c2nc(NCCCO)n(C)c(=O)c21 (stereo not shown) — lower, 6.68%
- Clc1ccccc1-c1ncc2ccccn12.O=C(O)C(=O)O — lower, 7.65%
- CCOC(=O)c1ccc(NCn2c(=O)oc3ccccc32)cc1 — lower, -18.7%
- O=C(CCc1nc(-c2ccccc2F)no1)NCc1ccco1 — lower, 8.26%
- Cc1ccc2nc(N3CCCCC3)c(C=O)c(=O)n2c1 — lower, 7.46%
- Cc1ccc(C)c(OCC(=O)O/N=C(\N)c2cccc([N+](=O)[O-])c2)c1 — lower, 6.15%
- COc1ccccc1/C=C1\NC(=S)N(CC2CCCO2)C1=O (stereo not shown) — lower, 2.49%
- Cc1cc(C(=O)OCC(=O)Nc2nccs2)c2ccccc2n1 — lower, 1.2%
- O=C(Oc1ccccc1)c1ccc(NC(=O)c2ccco2)cc1 — lower, 4.38%
- COc1ccc(NC(=O)CCc2nnc3ccc(N4CCC(C)CC4)nn23)cc1 — higher, 14.3%
- CCOC(=O)C1CCCN(C/C(O)=C(\C#N)c2nc(-c3ccccc3)cs2)C1 (stereo not shown) — lower, 8.83%
- CCOC(=O)C1=C(C)NC(SCC(=O)O)=C(C#N)C1c1ccco1 (stereo not shown) — lower, 1.04%
- O=C(CCc1nnc(Cc2c[nH]c3ccccc23)o1)NC1CCCC1 — lower, -5.36%
- COc1ccccc1-c1ccc(/C=C2\C=CC(=O)O2)o1 — higher, 13.1%
- CC(NC(=O)c1ccccc1F)c1ccccc1 (stereo not shown) — higher, 15.3%
- O=c1c2cccnc2nc2n1CCCCC2 — higher, 18.9%
- Cc1ccc(S(=O)(=O)Nc2c(C)cc(C)nc2Cl)cc1 — lower, 7.26%
- O=C(NC1CCCCC1)C(c1cc2c(cc1[N+](=O)[O-])OCO2)N1CCCCC1 (stereo not shown) — lower, 3.05%
- Brc1cc(Br)c(Oc2cc(Br)c(Br)cc2Br)cc1Br — higher, 12.3%
- CC(=O)NC(CCS(C)(=O)=O)C(=O)Nc1c(F)cccc1F (stereo not shown) — lower, 0.8%
- CC/C(=N\NC(=O)c1cccnc1)c1ccc2c(c1)OCCO2 — lower, 5.62%
- CCCn1c(C(O)c2ccc(OCC)cc2)nc2ccccc21 (stereo not shown) — lower, -9.82%
- CCc1cc(=O)oc2cc(OC(=O)CN3C(=O)NC4(CCCC4)C3=O)ccc12 — higher, 11.3%
- COc1ccc(NC(=O)Nc2sc(=S)n(C)c2C)cc1 — higher, 9.74%
- CCc1nc(NCCO)c(C#N)c2c1CSC(C)(C)C2 — higher, 17.2%
- COc1ccccc1-n1c(CNC(=O)c2ccc(S(=O)(=O)N3CCOCC3)cc2)n[nH]c1=S — lower, 7.16%
- O=S(=O)(Nc1nc2ccccc2s1)c1ccc(Br)s1 — higher, 9.8%
- CCCS(=O)(=O)Nc1c(C(=O)OC)[nH]c2ccccc12 — lower, 0.77%
- COc1cccc(/C=N/NC(=O)CN2CC(c3ccccc3)CC2=O)c1O (stereo not shown) — higher, 11.6%
- COc1cc2c(cc1OC)-c1cc(Nc3cccc(C)c3)nc(=O)n1CC2 — lower, -19.5%
- COc1ccc(NC(=O)CN2CCN(C(=O)C3CCCO3)CC2)c(OC)c1 (stereo not shown) — lower, -18.5%
- CN(C)S(=O)(=O)c1ccc(Cl)c(NC(=O)CN2CCN(Cc3ccc4c(c3)OCO4)CC2)c1 — lower, -12.1%
- COc1cc(CC(=O)NCC(C)(C)N2CCOCC2)cc(OC)c1OC — higher, 13.5%
- Cc1ccc(NC(=O)Cn2nnc(C(=O)NCc3ccccc3)c2N)cc1C — higher, 14.1%
- O=S(=O)(Nc1ccc(Cl)cc1)c1ccc(N2CCOCC2)c(NC(=S)NCCN2CCOCC2)c1 — higher, 13.1%
- COC(=O)C(C)Sc1nc2c(c(=O)n(C)c(=O)n2C)n1CCC(C)C (stereo not shown) — lower, -4.09%
- O=C(COc1ncnc2scc(-c3ccc(Cl)cc3)c12)NCc1ccco1 — lower, 6.41%
- C/C(=N\OC(=O)Nc1ccccc1)c1ccc(C)cc1 — lower, 5.77%
- CCN1CCN(c2cc(C)c3cc(NC(=S)N4CCN(c5ccccc5)CC4)ccc3n2)CC1 — lower, 8.98%
- Cc1[nH]c2ccccc2c1C(=O)C(=O)N(C)C1CCCCC1 — lower, 7.11%
- O=C(c1ccccc1)c1cccn1CC(=O)N1CCCCCC1 — lower, 9.43%
- CCc1ccc(-c2nc(CN3CCC(C(=O)NCc4ccc(F)cc4)CC3)c(C)o2)cc1 — lower, -12.4%
- CCOCc1cnc(C)nc1NCC(=O)c1c(C)[nH]c2cc(C)ccc12 — lower, 1.62%
- COc1ccc(NC(=O)CN(C)C(=O)CCCN2C(=O)c3cccc4cccc(c34)C2=O)cc1 — lower, -6.84%
- COc1ccc(NC(=O)c2ccc([N+](=O)[O-])s2)c([N+](=O)[O-])c1 — lower, 6.23%
- O=C(CC1NCCc2ccccc21)Nc1ccccc1 (stereo not shown) — lower, 4.29%
- CN1C(=O)c2cccc3c(S(N)(=O)=O)ccc1c23 — lower, 8.38%
- Cc1ccc(NC(=O)Nc2ccno2)cc1 — higher, 13.7%
- CCn1cc(C(=O)NCCCN2CCCC(C)C2)c(=O)c2cc(S(=O)(=O)N3CCOCC3)ccc21 (stereo not shown) — higher, 16.1%
- COC(=O)Cn1c(CCS(=O)(=O)c2ccc(Cl)cc2)nc2ccccc21 — higher, 13.7%
- S=C(NCc1cccs1)Nc1cccc2ccccc12 — lower, 3.28%
- Cc1[nH+]csc1CCOC(=O)C1C2CC3CC(C2)CC1C3.[Cl-] (stereo not shown) — lower, 7.6%
- CCOC(=O)c1cc2c(C)n(-c3ccc(N(C)C)cc3)c(C)c2cc(C(=O)OCC)c1=O — higher, 12.6%
- CCCCC(=O)Nc1ccccc1Oc1ccccc1 — higher, 21%
- COC(=O)c1sc(N(C)C)c(C#N)c1-c1ccccc1 — higher, 15.2%
- O=C(CCc1ccc(S(=O)(=O)NCc2ccccc2)cc1)NCc1ccc2c(c1)OCO2 — lower, -4.65%
- CCCSc1nc2sc3c(c2c(=O)[nH]1)CC(C)CC3 (stereo not shown) — higher, 15.7%
- COc1ccccc1/C=C/C=N/NC(=O)c1cc(-c2ccc(C)o2)[nH]n1 — lower, 9.48%
- CCn1c(C)nnc1SCC(=O)Nc1ccc(C(C)=O)cc1 — higher, 11.1%
- O=C(CCN1CCOCC1)NNC(=O)Nc1cccc([N+](=O)[O-])c1 — higher, 11.2%
- COc1cccc(NC(=O)C2CCCC2)c1 — higher, 14.4%
- Cc1nn(Cc2ccccc2Cl)c(C)c1NC(=O)c1noc(C(C)C)c1[N+](=O)[O-] — higher, 10.1%
- CCN(CC(=O)NCc1ccc(Cl)cc1)C(=O)CSc1ccccc1F — lower, 5.91%
- COc1ccc(OC)c(/C(O)=C/C(=O)C(=O)Nc2ccccc2OC)c1 — lower, 5.52%
